# Measured values from PubChem BioAssay AID1476 (National Center for Advancing Translational Sciences (NCATS), 2009).
# In all, about 200,000 compounds went through this assay and about 4,500 (2.2%) were called active. This list was built around the results that the source calls inconclusive (neither active nor inactive); the mix of calls is not that of the screen. Calls come from the whole dose curve; as a rule, active = well fitted inhibition curve with a large enough effect; inconclusive = small, poorly fitted or top-dose-only effect, or effect the other way; inactive = flat fitted curve, though single readings scatter. Where the call is inconclusive, the potency comes from a doubtful curve fit.
# Biological target: Cruzipain (Trypanosoma cruzi) (UniProt P25779)
# Experiment: qHTS Assay for Promiscuous and Specific Inhibitors of Cruzain (without detergent); note: nearly all actives have a fitted effect of over 40% in size;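 for max response, negative = inhibition: plate controls were enzyme without inhibitor for no effect and buffer without enzyme for full effect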
# Details: purified cruzain, Z-FR-AMC fluorescence, no detergent
# In short: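 Purified cruzain at 1.5 nM, pre-incubated 15 min with compound at room temperature in 100 mM sodium acetate pH 5.5, 5 mM DTT, 0.00005% Triton X-100. Reaction started with 2 uM Z-FR-AMC; AMC fluorescence increase over 60 s gives rate.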
# Potency is the fitted concentration of half-maximal effect; tags give direction and shape of the fitted curve.
# Chain of UniProt P25779 (P25779 whole entry, looked up): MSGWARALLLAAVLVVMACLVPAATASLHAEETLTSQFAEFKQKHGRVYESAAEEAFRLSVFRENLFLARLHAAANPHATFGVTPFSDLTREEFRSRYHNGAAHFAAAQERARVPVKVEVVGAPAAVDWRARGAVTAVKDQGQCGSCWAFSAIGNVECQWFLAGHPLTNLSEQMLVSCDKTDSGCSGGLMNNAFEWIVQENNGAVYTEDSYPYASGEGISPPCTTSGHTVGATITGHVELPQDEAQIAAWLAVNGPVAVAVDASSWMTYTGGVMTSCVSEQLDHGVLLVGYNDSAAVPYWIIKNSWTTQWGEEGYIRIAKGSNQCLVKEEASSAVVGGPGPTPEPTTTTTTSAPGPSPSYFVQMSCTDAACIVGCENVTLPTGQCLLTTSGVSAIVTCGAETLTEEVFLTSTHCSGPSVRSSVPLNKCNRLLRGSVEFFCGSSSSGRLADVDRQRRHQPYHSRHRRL
SMILES,Potency,"max response, negative = inhibition"
Cc1ccc2nsnc2c1S(=O)(=O)N1CCOCC1,"inconclusive: 20 µM [inhibitor, single point]",
Cc1ccc(S(=O)(=O)N2CCc3cc(C(=O)Nc4ccc(C)c(C)c4)ccc32)cc1,"inconclusive: 39.8 µM [inhibitor, single point]",
Cc1ccc(Cn2cc(/C=C(/C#N)C(=O)Nc3cccc(Cl)c3)c3ccccc32)cc1,active: 7.94 µM,
Cc1nnc(SCc2nc(-c3ccc(Cl)cc3)no2)n1-c1ccc(F)cc1,"inconclusive: 39.8 µM [activator, single point]",
COc1ccc(/C=C/C(=O)NCc2cn(C)nc2C)cc1COc1ccc(Br)cc1,"inconclusive: 31.6 µM [activator, single point]",
COc1ccccc1NC(=O)Cn1c(=O)n(CCc2ccccc2)c(=O)c2c3c(sc21)CN(C(C)=O)CC3,"inconclusive: 25.1 µM [activator, partial curve]",
C[C@@H](N)/C(N)=N/O,,inactive: 0.454%
COc1ccc(C(=O)c2c[nH]c(C(=O)NCc3cccs3)c2)cc1,"inconclusive: 39.8 µM [inhibitor, single point]",
Cc1nc(N2CCN(C(=O)c3ccc(Cl)cc3)CC2)c(C#N)c2c1COC(C)(C)C2,"inconclusive: 39.8 µM [activator, single point]",
Cn1c(=O)[nH]c(=O)c2c1nc(CN(Cc1ccccc1)Cc1ccccc1)n2CCN1CCOCC1,"inconclusive: 31.6 µM [activator, single point]",
COc1ccc(S(=O)(=O)Nc2cccc(-c3ccc(N4CCCCCC4)nn3)c2)cc1,"inconclusive: 39.8 µM [inhibitor, single point]",
COc1ccc(O)c(C2Nc3ccccc3-n3c(-c4ccccc4)c4c(=O)n(C)c(=O)n(C)c4c32)c1 (configuration not stated),"inconclusive: 39.8 µM [inhibitor, single point]",
c1cc2c3c(cccc3c1)NC1(CCCCC1)N2,active: 7.94 µM,
O=C(CNC(=O)c1ccc(Cl)cc1)OCc1cc(=O)n2ccsc2n1,,inactive: -8.26%
COc1ccccc1N1CCN(c2ncnc3c2nc2n3CCCC2)CC1,"inconclusive: 39.8 µM [activator, single point]",
CCn1cc(CNC(=O)CCSc2nc(-c3ccco3)cc(C(F)(F)F)n2)cn1,"inconclusive: 6.31 µM [inhibitor, single point]",
CCCC[n+]1ccn(-c2nc3ccccc3nc2[N-]S(=O)(=O)c2ccc(C)cc2)c1,,inconclusive: 120% [activator]
Cc1cccn2c(=O)c3cc(C(=O)NCCc4ccccc4)c(=N)n(CCCn4ccnc4)c3nc12,"inconclusive: 3.16 µM [activator, partial curve]",
COc1ccccc1N1CCN(C(=O)c2cc(C3CC3)on2)CC1,,inactive: -1.89%
CCCCSCCCNC(=O)CN1C(=O)COc2ccc(S(=O)(=O)N3CCC(C)CC3)cc21,,inactive: -1.22%
CCCCn1c(Nc2ccccc2)nc2ccccc21,,inactive: -4.66%

SMILES,Potency,"max response, negative = inhibition"
CCOC(=O)C1CCCN(S(=O)(=O)c2cc(OCC(=O)NC3CCCCC3)c(C)cc2Cl)C1 (configuration not stated),"inconclusive: 39.8 µM [activator, single point]",
Nc1c(C(=O)NC2CCCC2)c2nc3ccccc3nc2n1/N=C/c1ccco1,"inconclusive: 39.8 µM [activator, single point]",
O=C(C1CCCN(S(=O)(=O)c2cccc3cccnc23)C1)N1CCc2ccccc21 (configuration not stated),"inconclusive: 31.6 µM [inhibitor, single point]",
S=C(Nc1ccc(OCc2ccccc2)cc1)Nc1cccc(Cl)c1Cl,"inconclusive: 31.6 µM [inhibitor, single point]",
Cn1c(=O)n(Cc2ccccc2)c(=O)c2c1nc1n2CCCN1Cc1ccccc1,"inconclusive: 39.8 µM [activator, single point]",
Cc1cc(C)c2c(n1)SCCN2C(=O)Nc1ccc(C(=O)Nc2cc(Cl)ccc2C)cc1,"inconclusive: 12.6 µM [activator, partial curve]",
CC(=O)N1CCC2(CC1)CCN(c1cccc(-c3ccccc3)c1)CC2,"inconclusive: 39.8 µM [activator, single point]",
Cc1ccc2cc3c(NC(=O)C(C)C)nn(C)c3nc2c1,"inconclusive: 39.8 µM [activator, single point]",
CSCCC(NC(=O)c1ccccc1)C(=O)N/N=C(\C)c1ccccc1 (configuration not stated),"inconclusive: 39.8 µM [inhibitor, single point]",
CC(C)(C)c1ccc(C(=O)NC(Cc2c[nH]c3ccccc23)C(=O)OCC(=O)c2ccccc2)cc1 (configuration not stated),"inconclusive: 39.8 µM [inhibitor, single point]",
COc1cc(NS(=O)(=O)c2ccc(N/C=C(\C=O)c3nc4cc(Cl)ccc4o3)cc2)nc(OC)n1,"inconclusive: 31.6 µM [activator, partial curve]",
CCOC(=O)C1=C(C)NC(=O)NC1c1c(OCC(=O)N2CCCCC2)ccc2ccccc12 (configuration not stated),"inconclusive: 39.8 µM [activator, single point]",
O=C1CC(c2ccc(Cl)cc2)CC(O)=C1C=NCc1ccc(Cl)c(Cl)c1 (configuration not stated),"inconclusive: 39.8 µM [inhibitor, single point]",
FC(F)(F)c1cnc2c(c1)Nc1ccccc1S2,"inconclusive: 39.8 µM [inhibitor, single point]",
COc1cc(/C=c2\sc3n(c2=O)C(c2ccccc2)C(c2ccccc2)=NN=3)ccc1O (configuration not stated),active: 15.8 µM,
Nc1nnnn1/N=C/c1ccccc1C(F)(F)F,,inactive: 2.37%
CC1Cc2ccccc2N1C(=O)CSc1nc2cc3c(cc2cc1C#N)OCO3 (configuration not stated),"inconclusive: 31.6 µM [inhibitor, single point]",
COc1ccc(CC(NC(C)=O)C(=O)N2CCN(C(=O)Nc3cccc(Cl)c3)CC2)cc1OC (configuration not stated),"inconclusive: 31.6 µM [activator, single point]",
COc1ccc(NC(=O)CSc2nnc(NC(=O)Nc3ccccc3)s2)c(OC)c1,,inactive: -7.37%
O=C(CCCCCCCC(=O)NNC(=O)Nc1ccccc1)NNC(=O)Nc1ccccc1,"inconclusive: 39.8 µM [inhibitor, single point]",
Cc1ccc(/C=C/C(=O)OC(C)C(=O)Nc2ccc(Cl)cn2)o1 (configuration not stated),"inconclusive: 25.1 µM [inhibitor, partial curve]",

SMILES,Potency,"max response, negative = inhibition"
COc1cc(/C=C/c2ccc3cccc([N+](=O)[O-])c3n2)ccc1OCC#N,"inconclusive: 25.1 µM [inhibitor, single point]",
Cc1ccc(OCC(=O)Nc2ccc(Cl)c(-c3nc4ccccc4[nH]3)c2)cc1C,"inconclusive: 39.8 µM [inhibitor, single point]",
CCn1cc2nc(SCc3ccc(C)cc3)n(CCc3ccccc3)c(=O)c2n1,"inconclusive: 39.8 µM [activator, single point]",
Cc1ccc(S(=O)(=O)NCC2CCC(C(=O)N(C)Cc3ccccc3)CC2)cc1 (configuration not stated),,inactive: -4.53%
CCN(/N=C/C=C/c1ccccc1)c1cc(=O)n(C)c(=O)[nH]1,"inconclusive: 25.1 µM [inhibitor, single point]",
S=C(Nc1ccccc1)Nc1nc2ccccc2n1CCOc1ccc(Cl)cc1,active: 10 µM,
CC(=O)/C(=N\Nc1cccc(Cl)c1)Sc1cccc2cccnc12,"inconclusive: 39.8 µM [inhibitor, single point]",
CC(=O)c1ccc(-n2nnnc2SCC(=O)Nc2sc(C)c(C)c2C#N)cc1,,inactive: -10.1%
COc1cccc(C2CC(=O)Nc3c2c(=O)n(C)c2ncnn32)c1OC (configuration not stated),,inactive: -5.24%
CCCC(C(=O)NCC1CCCO1)N(Cc1ccco1)C(=O)CNS(=O)(=O)c1ccc(F)cc1 (configuration not stated),"inconclusive: 39.8 µM [activator, single point]",
N#CC1=C2SCN(c3ccccc3)CN2C(=O)CC1c1cccs1 (configuration not stated),"inconclusive: 31.6 µM [inhibitor, single point]",
Cc1nn(C)c(C)c1CNC(=O)c1cnn2c1NC(c1ccccc1)CC2C(F)(F)F (configuration not stated),"inconclusive: 39.8 µM [activator, single point]",
CCc1ccc(NC(=O)CC2C(=O)N(c3ccc(Cl)cc3)C(=O)N2Cc2cccs2)cc1 (configuration not stated),"inconclusive: 31.6 µM [inhibitor, single point]",
O=C(CSc1nc2ccccc2s1)N1N=C(c2cccs2)CC1c1ccc(F)cc1 (configuration not stated),"inconclusive: 39.8 µM [inhibitor, single point]",
CCCOc1ccc(C2c3c(oc4cc(C)c(C)cc4c3=O)C(=O)N2CCCN(C)C)cc1 (configuration not stated),"inconclusive: 39.8 µM [activator, single point]",
COc1cc(-c2ccc(N=Nc3ccc4c(S(=O)(=O)O)cc(S(=O)(=O)O)c(N)c4c3O)c(OC)c2)ccc1N=Nc1ccc2c(S(=O)(=O)O)cc(S(=O)(=O)O)c(N)c2c1O,"inconclusive: 12.6 µM [activator, full curve, poor fit]",
Cc1ccc(-c2nc(-c3cccnc3)sc2CC(=O)Nc2ccc(C)c(Cl)c2)cc1,active: 25.1 µM,
Cc1ccc(C)c(N2CCN(C(=O)CCS(=O)(=O)c3ccc4c(c3)CC(=O)N4C)CC2)c1,"inconclusive: 39.8 µM [activator, single point]",
CN(C)c1cc2c(Nc3ccc4c(cnn4Cc4ccccc4)c3)ncnc2cn1,"inconclusive: 39.8 µM [activator, single point]",
N#C/C(=C\c1ccc(Cl)cc1)c1nc(-c2ccco2)cs1,"inconclusive: 39.8 µM [inhibitor, single point]",
